# Measurements reported in PubChem BioAssay AID1030 (National Center for Advancing Translational Sciences (NCATS), 2008).
# Among all 220,000 compounds or so, about 16,000 (7.3%) were called active. Inconclusive means that the source gave no clear call. Such entries were picked first, then a sample of the others. Calls come from the whole dose curve; as a rule, active = well fitted inhibition curve with a large enough effect (not every such curve was filed as active); inconclusive = small, poorly fitted or top-dose-only effect, or another doubt; inactive = no such curve, though single readings can be large or run the other way. Potencies of inconclusive entries are left out as doubtful fits.
# Molecular target: Aldehyde dehydrogenase 1A1 (Homo sapiens) (UniProt P00352)
# UniProt P00352, sequence (P00352 whole entry, looked up): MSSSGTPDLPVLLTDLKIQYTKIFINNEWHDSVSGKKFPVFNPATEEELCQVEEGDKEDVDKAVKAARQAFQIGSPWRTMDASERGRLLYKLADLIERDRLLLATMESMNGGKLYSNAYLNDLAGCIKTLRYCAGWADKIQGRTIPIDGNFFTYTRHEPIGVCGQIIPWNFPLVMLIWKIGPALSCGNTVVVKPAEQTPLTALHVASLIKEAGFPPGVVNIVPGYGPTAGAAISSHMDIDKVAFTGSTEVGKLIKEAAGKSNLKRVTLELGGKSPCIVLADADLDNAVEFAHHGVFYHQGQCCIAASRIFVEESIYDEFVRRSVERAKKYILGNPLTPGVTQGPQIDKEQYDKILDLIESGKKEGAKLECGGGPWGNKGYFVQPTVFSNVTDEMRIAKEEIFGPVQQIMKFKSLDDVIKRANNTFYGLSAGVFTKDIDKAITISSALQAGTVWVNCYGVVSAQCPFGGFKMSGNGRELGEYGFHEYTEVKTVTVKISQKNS
# Experiment: qHTS Assay for Inhibitors of Aldehyde Dehydrogenase 1 (ALDH1A1);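 for activity, negative = inhibition: plate controls were no enzyme wells and a reference inhibitor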
# Details: Purified ALDH1A1, NADH fluorescence, propionaldehyde substrate; series mostly up to 75.3 µM
# Potency is the fitted concentration of half-maximal effect; tags give direction and shape of the fitted curve.
Compound,Potency,"activity, negative = inhibition"
Cn1c(SCC(=O)N2CCCc3ccccc32)nc2cccnc21,inactive,
COc1ccccc1N1CCN(C(=O)c2cc(-c3ccco3)on2)CC1,"inconclusive [inhibitor, single point]",
O=C(CSc1c2c(nc3ccc(Cl)cc13)CCCC2)NCc1ccco1,inactive,
CC(C)CN1C(=O)C(=O)N(CC(=O)NCc2ccc3c(c2)OCO3)C1=O,"inconclusive [inhibitor, single point]",
Fc1ccc(CNc2nc(-c3ccco3)cc(C(F)(F)F)n2)cc1,"inconclusive [inhibitor, single point]",
O=c1c2ccccc2nc(/C=C/c2ccc([N+](=O)[O-])cc2)n1CCCO,"inconclusive [inhibitor, single point]",
CCOc1ccc(N2C(=O)c3cccnc3C2Nc2ccc(Cl)cc2)cc1 (configuration not stated),inactive,
CCOC(=O)N1CCN(C(=O)c2ccc3c(=O)n(Cc4ccccc4OC)c(=S)[nH]c3c2)CC1,"inconclusive [inhibitor, partial curve]",
O=C(NCc1cccnc1)C1CCCN(S(=O)(=O)c2ccccc2)C1 (configuration not stated),inactive,
CC(C)Oc1cccc(C(=O)NC2=NCCS2)c1,"inconclusive [inhibitor, single point]",
NC(=S)N/N=C/c1ccccc1,inactive,
CCCCn1c(SCC(=O)NCCOC)nc2ccc(N3CCOCC3)cc2c1=O,"inconclusive [inhibitor, partial curve]",
O=C(O)c1ccccc1C(=O)OCc1ccccc1,"inconclusive [inhibitor, single point]",
Cc1cccc(N2CCN(C(=O)c3ccc4ncsc4c3)CC2)c1C,"inconclusive [inhibitor, single point]",
Cc1cc(OCC(=O)O/N=C(\N)Cc2cccs2)ccc1Br,inactive,
COCCNC(=O)Cn1c(=O)n(Cc2ccco2)c(=O)c2ccccc21,"inconclusive [inhibitor, single point]",
CC(=O)N(CCCN1CCOCC1)Cc1ccncc1,inactive,
O=C(COC(=O)c1cccc(S(=O)(=O)N2CCCC2)c1)NCc1ccccc1,inactive,
Cc1nc(C)c(-c2csc(NCc3ccccc3)n2)s1,"inconclusive [inhibitor, single point]",
CN(Cc1ccccc1F)c1nc(-c2cccs2)nc2ccccc12,"inconclusive [inhibitor, single point]",
CCOC(=O)CSc1nnc(-c2nnc(SCC(=O)OCC)n2CC)n1CC,"inconclusive [inhibitor, single point]",
CN(C(=O)COC(=O)c1ccc(Cl)nc1)C1CCS(=O)(=O)C1 (configuration not stated),inactive,
NC(=O)c1cnn2c(C(F)(F)F)cc(-c3ccccc3)nc12,"inconclusive [inhibitor, single point]",
C[C@@H]1NC(=O)c2cc([N+](=O)[O-])cc(I)c2OCC[C@@H](C(N)=O)NC(=O)[C@H](CCCCN)NC1=O,"inconclusive [inhibitor, single point]",
O=C(c1ccc2ccccc2c1)C1CCCN(C(=O)c2noc3c2CCCC3)C1 (configuration not stated),active: 14.1 µM,
CC(C)CC(c1nnnn1C(C)C)N1CCN(c2ccccc2)CC1 (configuration not stated),inactive,

Compound,Potency,"activity, negative = inhibition"
Cn1cnnc1SCC(=O)Nc1cc(S(=O)(=O)N2CCCCCC2)ccc1Cl,inactive,
CC(C)CCNC(=O)CCCOc1cc(=O)n(C)c2ccccc12,inactive,
CC(C)(C)Nc1nc(OCC(F)(F)F)nc(OCC(F)(F)F)n1,inactive,
CC(C)CCn1c(=O)c2ccccc2n2c(CN(C)Cc3ccccc3)nnc12,"inconclusive [inhibitor, partial curve]",
O=C1C=CC(=C(c2ccc(O)cc2)c2ccc(O)cc2)C=C1,inactive,
CCC(C)NCCOCCOc1ccc(Cl)c2ccccc12 (configuration not stated),"inconclusive [inhibitor, single point]",
CCCCCCC(=O)Nc1nc(C)c(-c2csc(Nc3cc(Cl)ccc3OC)n2)s1,"inconclusive [inhibitor, single point]",
Cc1ccc(S(=O)(=O)/N=C2\SC(CC(=O)Nc3ccc(F)cc3)C(=O)N2c2ccccc2)cc1 (configuration not stated),active: 5.62 µM,
Cc1ccc(Cc2nnc3n(-c4ccccc4)nc(C(=O)c4ccccc4)n3c2=O)cc1,"inconclusive [inhibitor, single point]",
Cc1ncc([N+](=O)[O-])n1CCOC(=O)Nc1ccc([N+](=O)[O-])cc1,"inconclusive [inhibitor, single point]",
COc1ccc(/C=C/C(=O)c2cc(Br)ccc2O)cc1OC,inactive,
CCOc1cc(CNCCCN2CCOCC2)ccc1OCC(=O)NC(C)(C)C,"inconclusive [inhibitor, single point]",
COc1ccc(CNC(=S)Nc2cc(C)ccc2C)cc1,"inconclusive [inhibitor, single point]",
Nc1nc(SCC(=O)c2cc(F)ccc2F)n[nH]1,"inconclusive [inhibitor, single point]",
COc1ccc(NC(=O)N2CCCC2C(=O)NCc2ccc(C)cc2)cc1 (configuration not stated),inactive,
COC(=O)c1[nH]c2ccc(C)cc2c1NS(=O)(=O)c1ccc(F)c(C)c1,"inconclusive [inhibitor, partial curve]",
CCc1ccc(NC(=O)c2ccc(OC)c([N+](=O)[O-])c2)cc1,active: 11.2 µM,
C=CC[C@@H]1C=C[C@@H](O/N=C\[C@@H](OC)[C@H](C)/C=C\CC(=O)OC)[C@@H](CO)O1,,inactive: 2.01% [at 13.5 µM]
O=C(Nc1ccc(NC(=O)C23CC4CC(CC(C4)C2)C3)cn1)c1ccco1,"inconclusive [inhibitor, single point]",
Cc1ccc2nc3c(cc(C#N)c(=N)n3CC3CCCO3)c(=O)n2c1 (configuration not stated),"inconclusive [inhibitor, partial curve]",
Cc1ccc(-c2noc(C3CCCN(C(=O)c4ccccc4)C3)n2)o1 (configuration not stated),active: 14.1 µM,
CC(C)(C)c1cc(CSC(=S)NC2CCS(=O)(=O)C2)c(Br)c(C(C)(C)C)c1 (configuration not stated),inactive,
CCOC(=O)Cn1c(C)c(Br)c(=O)c2cccc(C)c21,inactive,
Cc1ccc(S(=O)(=O)N2CCCN(S(=O)(=O)C3CCS(=O)(=O)C3)CC2)cc1 (configuration not stated),inactive,
O=C(Nc1nc(-c2ccc(Oc3ccccc3)cc2)cs1)C1=COCCO1,"inconclusive [inhibitor, single point]",
COc1ccc(NC(=O)/C(C#N)=C/c2ccc3c(c2)n(C)c(=O)n3C)cc1,inactive,

Compound,Potency,"activity, negative = inhibition"
Cc1nn(-c2ccccn2)c2c1C(c1c(F)cccc1Cl)C1=C(N2)c2ccccc2C1=O (configuration not stated),"inconclusive [inhibitor, partial curve]",
O=C(c1ccc2c(c1)OCO2)N1CCCC1,"inconclusive [inhibitor, partial curve]",
CCOC(=O)C(C)N1C(=O)S/C(=C/c2ccc3c(c2)n(C)c(=O)n3C)C1=O (configuration not stated),inactive,
CCC1=C2CC[C@H]3C(=O)N(CC)C(=O)[C@H]3[C@H]2[C@@]2(C)C(=NCC(=O)OC)OC(=O)N2C1=O,inactive,
CCC(=O)c1c(OCc2ccccc2)ccc2c(C)cc(=O)oc12,"inconclusive [inhibitor, partial curve]",
CNC(=O)c1ccc(-n2cccn2)nc1,inactive,
Cc1cc(NCc2ccncc2)ccc1Br,active: 22.4 µM,
O=P(O)(c1ccccc1)c1ccccc1O,inactive,
COc1ccc(-c2nc3ccccc3n2Cc2ccccc2)cc1,"inconclusive [inhibitor, partial curve]",
CCC1=NN(C(=O)c2ccc(C)cc2)C(O)(c2ccc(Br)cc2)C1 (configuration not stated),"inconclusive [inhibitor, single point]",
CCC(C)(C)C1CCC(=NNC(=O)c2ccoc2C)CC1 (configuration not stated),active: 25.1 µM,
COc1ccccc1NS(=O)(=O)c1cc(NC(=O)CCC2CCCC2)ccc1N1CCOCC1,active: 15.8 µM,
CCOC(=O)c1c(C)n(C)c2ccc(O)c(S(=O)(=O)c3ccccc3)c12,inactive,
N#C/C(=C/c1ccc(Sc2nc3ccccc3[nH]2)o1)c1ccccc1F,"inconclusive [inhibitor, single point]",
O=C(Cc1cccs1)Nc1nnc(Cc2ccccc2)s1,"inconclusive [inhibitor, single point]",
CCCCCOc1ccc(/C=c2\sc3nc(=O)c(-c4ccccc4)nn3c2=O)cc1OC,active: 11.2 µM,
COc1cc(/C=C(\CC(=O)O)c2nc3ccccc3s2)cc(OC)c1O,"inconclusive [inhibitor, single point]",
O=[N+]([O-])c1ccc(-n2nnnc2-c2ccccc2)cc1,inactive,
CCNc1nc(SC(C)C(=O)OC)nc(N2CCOCC2)n1 (configuration not stated),active: 18.9 µM,
O=C(O)CCCCCNc1ncnc2ccc(Br)cc12,inactive,
C1CCC(C23CC4CC(CC(C4)C2)C3)NC1 (configuration not stated),inactive,
NC(=O)c1nsc(C(=O)N(CC(=O)NCc2ccc(F)cc2)Cc2ccco2)c1N,"inconclusive [inhibitor, single point]",
Cc1ccc(NC(=O)c2ccc(Cn3cc(Br)cn3)o2)cc1,"inconclusive [inhibitor, single point]",
Cc1nc(-c2ccccc2)nc2[nH]ccc(=O)c12,"inconclusive [inhibitor, single point]",
O=C(Nc1cccn2ncnc12)c1ccc(Cl)cc1,"inconclusive [inhibitor, single point]",
